In the supplement of paper PMC4967469:

Experiments:
Test in all cases: Viability of human cancer cell lines after 72 h of drug (GDSC screen)
[1] = compound: COc1cc(N2CCC(O)CC2)ccc1Nc1cc(Nc2ccccc2S(=O)(=O)C(C)C)c2cc[nH]c2n1 [MPS-1-IN-1]; conditions: top dose 20 µM; top dose inferred
Protocol: (§1)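 Human cancer cell lines in 384-well plates, medium with 10% serum, drug for 72 h over a 256-fold dose range (nine 2-fold or five 4-fold steps up to the top dose). Adherent lines were fixed and stained with the nucleic acid dye Syto60, suspension lines read with resazurin; signal relative to control wells, capped at 0 and 100%. One two-parameter sigmoid per drug and line, fitted in a mixed model over all curves with the slope shared within a line.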

[2] = compound: O=c1cc(-c2cccc3c2Sc2ccccc2S3)oc(N2CCOCC2)c1 [KU-55933]; conditions: top dose 10 µM
Protocol: as §1

[3] = compound: COc1cc2ncnc(-n3nc(-c4ccccn4)nc3N)c2cc1OC [CP466722]; conditions: top dose 16 µM; top dose inferred
Protocol: as §1

[4] = compound: Nc1ccn([C@@H]2O[C@H](CO)[C@@H](O)[C@@H]2O)c(=O)n1 [Cytarabine]; conditions: top dose 2 µM
Protocol: as §1

[5] = compound: CCn1c(-c2nonc2N)nc2cnc(Oc3cccc(NC(=O)c4ccc(OCCN5CCOCC5)cc4)c3)cc21 [GSK269962A]; conditions: top dose inferred
Protocol: as §1

[6] = compound: C=CC(=O)Nc1cc(-n2c(=O)ccc3cnc4ccc(-c5cn[nH]c5)cc4c32)ccc1C [QL-X-138]; conditions: top dose 10.24 µM; top dose inferred
Protocol: as §1

[7] = compound: COc1nc(C)cnc1NS(=O)(=O)c1cccnc1-c1ccc(-c2nnco2)cc1 [Zibotentan]; conditions: top dose 20 µM; top dose inferred
Protocol: as §1

[8] = compound: C[C@]1(c2nc3c(C(N)=O)cccc3[nH]2)CCCN1 [ABT-888]; conditions: top dose 5 µM; top dose inferred
Protocol: as §1

[9] = compound: Cc1cnc(-c2cnc(NCCNc3ccc(C#N)cn3)nc2-c2ccc(Cl)cc2Cl)[nH]1 [CHIR-99021]
Protocol: as §1

[10] = compound: COc1cc(O)c2c(c1)/C=C/C[C@H](O)[C@H](O)C(=O)/C=C\C[C@H](C)OC2=O [(5Z)-7-Oxozeaenol]; conditions: top dose 10 µM; top dose inferred
Protocol: as §1

[11] = compound: Cc1ccc(-c2c(C(=O)CCl)n(CCCO)c3ncnc(N)c23)cc1 [CMK]; conditions: top dose 4 µM; top dose inferred
Protocol: as §1

[12] = compound: Cc1ccc(F)c(NC(=O)Nc2ccc(-c3cccc4[nH]nc(N)c34)cc2)c1 [ABT-869]; conditions: top dose 1.024 µM; top dose inferred
Protocol: as §1

[13] = compound: C/C=C(/C)C(=O)O[C@H]1C(C)=C2[C@H]([C@@H]1OC(=O)CCCCCCC)[C@@](C)(OC(C)=O)C[C@H](OC(=O)CCC)[C@@]1(O)[C@H]2OC(=O)[C@@]1(C)O [Thapsigargin]; conditions: top dose 0.512 µM; top dose inferred
Protocol: as §1

[14] = top dose 2.5 µM, screen: GDSC drug entry 127
[15] = top dose 5 µM, screen: GDSC drug entry 1192
[16] = top dose 2.56 µM, screen: GDSC drug entry 154
[17] = top dose 10 µM, screen: GDSC drug entry 1241, top dose inferred

Cell Line | AUC [1] | IC50 [1] | AUC [2] | IC50 [2] | AUC [3] | IC50 [3] | AUC [4] | IC50 [4] | AUC [5, 14] | IC50 [5, 14] | AUC [5, 15] | IC50 [5, 15] | AUC [6] | IC50 [6] | AUC [7] | IC50 [7] | AUC [8] | IC50 [8] | AUC [9, 16] | IC50 [9, 16] | AUC [9, 17] | IC50 [9, 17] | AUC [10] | IC50 [10] | AUC [11] | IC50 [11] | AUC [12] | IC50 [12] | AUC [13] | IC50 [13]
TGW (neuroblastoma, adherent) | 0.673 | 3500 nM | 0.963 | > 10000 nM | 0.839 | 8750 nM | 0.76 | 613 nM | 0.942 | > 2500 nM | 0.778 | 1730 nM | 0.895 | 9330 nM | 0.992 | > 20000 nM | 0.988 | > 5000 nM | 0.99 | > 2560 nM | 0.984 | > 10000 nM | 0.799 | 4020 nM | 0.837 | 2160 nM | 0.988 | > 1020 nM | 0.205 | 5.12 nM
TK10 (kidney, adherent) | 0.842 | 18600 nM | 0.949 | > 10000 nM | 0.846 | 15500 nM | 0.844 | 1900 nM | 0.963 | > 2500 nM | 0.898 | > 5000 nM | 0.715 | 2990 nM | 0.971 | > 20000 nM | 0.98 | > 5000 nM | 0.953 | > 2560 nM | 0.766 | 4430 nM | 0.506 | 652 nM | 0.763 | 1730 nM | 0.98 | > 1020 nM | 0.461 | 24.4 nM
TUR (B-cell lymphoma, suspension) | 0.771 | 7080 nM | 0.943 | > 10000 nM | 0.664 | 2750 nM | 0.317 | 40.2 nM | 0.989 | > 2500 nM | 0.769 | 1750 nM | 0.447 | 464 nM | 0.983 | > 20000 nM | 0.987 | > 5000 nM | 0.989 | > 2560 nM | 0.954 | > 10000 nM | 0.641 | 1480 nM | 0.979 | > 4000 nM | 0.979 | > 1020 nM | 0.306 | 9.6 nM
UACC-257 (melanoma, adherent) | 0.869 | > 20000 nM | 0.973 | > 10000 nM | 0.843 | 15700 nM | 0.843 | 1960 nM | 0.897 | > 2500 nM | 0.862 | > 5000 nM | 0.766 | 4700 nM | 0.951 | > 20000 nM | 0.98 | > 5000 nM | 0.979 | > 2560 nM | 0.976 | > 10000 nM | 0.251 | 99.1 nM | 0.975 | > 4000 nM | 0.981 | > 1020 nM | 0.656 | 96.8 nM

By IC50 is meant the dose at which the fit gives 50% viability; fits outside the tested doses are given as limits. AUC is the area under the same curve over the 256-fold range up to the top dose, as a fraction; values near 1 show little effect. For part of these data: The top dose, if marked as inferred, is not printed in the source and was worked back from the curve model. For part of these data: Drugs with an entry number were screened twice under separate entries, and the two screens often disagree.
